The labels stand for the following.
T1: RBFOX1 RRM (Homo sapiens, UniProt Q9NWB1 109-208)
T1 sequence: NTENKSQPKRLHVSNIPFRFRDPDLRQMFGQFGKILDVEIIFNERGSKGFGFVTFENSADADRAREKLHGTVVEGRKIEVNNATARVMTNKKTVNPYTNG

B1: CUGAGGU (DNA:RNA)
RNA: GGGAGACCGGAAUUCAGAUUGUCCCUGAGGUUUAAAUCCCGUCGUAGCCACCA
DNA 1: CAATCTGAATTCCGGTCTCCC
DNA 2: TGGTGGCTACGACGGGATT
B2: GAAAGGU (DNA:RNA)
RNA: B1 RNA with C25G, U26A, G27A
DNA 1: CAATCTGAATTCCGGTCTCCC
DNA 2: TGGTGGCTACGACGGGATT
B3: UGCACUC (DNA:RNA)
RNA: B1 RNA with C25U, U26G, G27C, G29C, G30U, U31C
DNA 1: CAATCTGAATTCCGGTCTCCC
DNA 2: TGGTGGCTACGACGGGATT
B4: ACAAUUC (DNA:RNA)
RNA: B1 RNA with C25A, U26C, G27A, G29U, G30U, U31C
DNA 1: CAATCTGAATTCCGGTCTCCC
DNA 2: TGGTGGCTACGACGGGATT
B5: CGAACCC (DNA:RNA)
RNA: B1 RNA with U26G, G27A, G29C, G30C, U31C
DNA 1: CAATCTGAATTCCGGTCTCCC
DNA 2: TGGTGGCTACGACGGGATT
B6: ACACCUG (DNA:RNA)
RNA: GGGAGACCGGAAUUCAGAUUGUCCACACCUGUUAAAUCCCGUCGUAGCCACCA
DNA 1: CAATCTGAATTCCGGTCTCCC
DNA 2: TGGTGGCTACGACGGGATT
B7: AUGUCUA (DNA:RNA)
RNA: B6 RNA with C26U, A27G, C28U, G31A
DNA 1: CAATCTGAATTCCGGTCTCCC
DNA 2: TGGTGGCTACGACGGGATT
B8: GUUCCGG (DNA:RNA)
RNA: B6 RNA with A25G, C26U, A27U, U30G
DNA 1: CAATCTGAATTCCGGTCTCCC
DNA 2: TGGTGGCTACGACGGGATT
B9: UGAUCAG (DNA:RNA)
RNA: B6 RNA with A25U, C26G, C28U, U30A
DNA 1: CAATCTGAATTCCGGTCTCCC
DNA 2: TGGTGGCTACGACGGGATT
B10: GUUCAUG (DNA:RNA)
RNA: B6 RNA with A25G, C26U, A27U, C29A
DNA 1: CAATCTGAATTCCGGTCTCCC
DNA 2: TGGTGGCTACGACGGGATT
B11: CCUGAUC (DNA:RNA)
RNA: B6 RNA with A25C, A27U, C28G, C29A, G31C
DNA 1: CAATCTGAATTCCGGTCTCCC
DNA 2: TGGTGGCTACGACGGGATT
B12: ACAGUGA (DNA:RNA)
RNA: B6 RNA with C28G, C29U, U30G, G31A
DNA 1: CAATCTGAATTCCGGTCTCCC
DNA 2: TGGTGGCTACGACGGGATT
B13: CGUUUAC (DNA:RNA)
RNA: B1 RNA with U26G, G27U, A28U, G29U, G30A, U31C
DNA 1: CAATCTGAATTCCGGTCTCCC
DNA 2: TGGTGGCTACGACGGGATT
B14: AAAGUAC (DNA:RNA)
RNA: B6 RNA with C26A, C28G, C29U, U30A, G31C
DNA 1: CAATCTGAATTCCGGTCTCCC
DNA 2: TGGTGGCTACGACGGGATT
B15: AUGACUG (DNA:RNA)
RNA: B6 RNA with C26U, A27G, C28A
DNA 1: CAATCTGAATTCCGGTCTCCC
DNA 2: TGGTGGCTACGACGGGATT
B16: GUCUACG (DNA:RNA)
RNA: B6 RNA with A25G, C26U, A27C, C28U, C29A, U30C
DNA 1: CAATCTGAATTCCGGTCTCCC
DNA 2: TGGTGGCTACGACGGGATT
B17: AAGCAUA (DNA:RNA)
RNA: B6 RNA with C26A, A27G, C29A, G31A
DNA 1: CAATCTGAATTCCGGTCTCCC
DNA 2: TGGTGGCTACGACGGGATT
B18: CUACUCG (DNA:RNA)
RNA: B6 RNA with A25C, C26U, C29U, U30C
DNA 1: CAATCTGAATTCCGGTCTCCC
DNA 2: TGGTGGCTACGACGGGATT
B19: GCGGAUG (DNA:RNA)
RNA: B6 RNA with A25G, A27G, C28G, C29A
DNA 1: CAATCTGAATTCCGGTCTCCC
DNA 2: TGGTGGCTACGACGGGATT
B20: GUUGGAC (DNA:RNA)
RNA: B1 RNA with C25G, G27U, A28G, G30A, U31C
DNA 1: CAATCTGAATTCCGGTCTCCC
DNA 2: TGGTGGCTACGACGGGATT
B21: GGAAUCU (DNA:RNA)
RNA: B1 RNA with C25G, U26G, G27A, G29U, G30C
DNA 1: CAATCTGAATTCCGGTCTCCC
DNA 2: TGGTGGCTACGACGGGATT
B22: CCGAUAU (DNA:RNA)
RNA: B1 RNA with U26C, G29U, G30A
DNA 1: CAATCTGAATTCCGGTCTCCC
DNA 2: TGGTGGCTACGACGGGATT
B23: UCCUAAC (DNA:RNA)
RNA: B6 RNA with A25U, A27C, C28U, C29A, U30A, G31C
DNA 1: CAATCTGAATTCCGGTCTCCC
DNA 2: TGGTGGCTACGACGGGATT
B24: CGAUUUU (DNA:RNA)
RNA: B6 RNA with A25C, C26G, C28U, C29U, G31U
DNA 1: CAATCTGAATTCCGGTCTCCC
DNA 2: TGGTGGCTACGACGGGATT
B25: GAUCACA (DNA:RNA)
RNA: B6 RNA with A25G, C26A, A27U, C29A, U30C, G31A
DNA 1: CAATCTGAATTCCGGTCTCCC
DNA 2: TGGTGGCTACGACGGGATT
B26: GCAUCCC (DNA:RNA)
RNA: B6 RNA with A25G, C28U, U30C, G31C
DNA 1: CAATCTGAATTCCGGTCTCCC
DNA 2: TGGTGGCTACGACGGGATT
B27: UUCAGUC (DNA:RNA)
RNA: B1 RNA with C25U, G27C, G30U, U31C
DNA 1: CAATCTGAATTCCGGTCTCCC
DNA 2: TGGTGGCTACGACGGGATT
B28: CGCGGUC (DNA:RNA)
RNA: B1 RNA with U26G, G27C, A28G, G30U, U31C
DNA 1: CAATCTGAATTCCGGTCTCCC
DNA 2: TGGTGGCTACGACGGGATT
B29: GUCAGUC (DNA:RNA)
RNA: B1 RNA with C25G, G27C, G30U, U31C
DNA 1: CAATCTGAATTCCGGTCTCCC
DNA 2: TGGTGGCTACGACGGGATT
B30: UCAUGAA (DNA:RNA)
RNA: B6 RNA with A25U, C28U, C29G, U30A, G31A
DNA 1: CAATCTGAATTCCGGTCTCCC
DNA 2: TGGTGGCTACGACGGGATT
B31: GCUGCAA (DNA:RNA)
RNA: B6 RNA with A25G, A27U, C28G, U30A, G31A
DNA 1: CAATCTGAATTCCGGTCTCCC
DNA 2: TGGTGGCTACGACGGGATT

Changes are numbered by the printed parent chain; changes in the protein carry UniProt numbers. Some of the results follow.

This test concerns the target T1, RBFOX1 RRM. Description: EMSA; HiTS-Eq, 1 nM pool, 10 min; buffer printed only for the single-RNA assays: 10 mM Tris pH 7.5, 150 mM NaCl, 3.4 mM EDTA, 0.001% NP-40, 30 C. The conditions noted are these: tags: His6 N-terminal (pET28a); label: 5' 32P. The method in brief: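 Purified RbFox RRM, wild type or mutant, was incubated for 10 min in 50 µL with 1 nM of a 5′-radiolabelled RNA pool carrying 7 randomized nucleotides, whose flanks were annealed to DNA oligonucleotides, over a series of increasing protein concentrations. Unbound RNA was resolved on 8% native PAGE, cut out, reverse-transcribed, barcoded by PCR and sequenced on an Illumina HiSeq 2500. Relative association constants were derived from changes in read counts for each RNA species versus the control reaction and normalised to the cognate motif.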
For orientation: In EMSA bound probe runs differently from free probe, usually more slowly.
As to B1, the binding signal was 0.0176 KA relative to UGCAUGU.
Turning to B2, the binding signal is 0.00433 KA relative to UGCAUGU.
As for B3, the figure is 0.0161 KA relative to UGCAUGU.
As for B4, the figure is 0.00135 KA relative to UGCAUGU; as for B5, 0.00354 KA relative to UGCAUGU.
As for B6, the figure is 0.00135 KA relative to UGCAUGU; as for B7, 0.00606 KA relative to UGCAUGU; as for B8, 0.0142 KA relative to UGCAUGU.
In the case of B9, the binding signal is 0.0206 KA relative to UGCAUGU.
With B10 the figure was 0.0107 KA relative to UGCAUGU.
Turning to B11, the binding signal was 0.0101 KA relative to UGCAUGU.
With B12 the figure was 0.00623 KA relative to UGCAUGU; with B13, 0.00846 KA relative to UGCAUGU; with B14, 0.00371 KA relative to UGCAUGU.
As for B15, the figure is 0.0149 KA relative to UGCAUGU.
With B16 the figure was 0.0132 KA relative to UGCAUGU; with B17, 0.00459 KA relative to UGCAUGU; with B18, 0.00852 KA relative to UGCAUGU.
For the molecule B19, the binding signal is 0.0133 KA relative to UGCAUGU.
With B20 the figure was 0.00422 KA relative to UGCAUGU; with B21, 0.0203 KA relative to UGCAUGU.
As for B22, the figure is 0.00448 KA relative to UGCAUGU; as for B23, 0.00119 KA relative to UGCAUGU; as for B24, 0.01 KA relative to UGCAUGU.
As for B25, the figure is 0.00238 KA relative to UGCAUGU; as for B26, 0.0182 KA relative to UGCAUGU; as for B27, 0.00953 KA relative to UGCAUGU.
Regarding B28, the binding signal is 0.00991 KA relative to UGCAUGU.
For the molecule B29, the binding signal was 0.011 KA relative to UGCAUGU.
For the molecule B30, the binding signal was 0.00544 KA relative to UGCAUGU.
As for B31, the figure is 0.0197 KA relative to UGCAUGU.

(Values after PMC9911399, “Two distinct binding modes provide the RNA-binding protein RbFox with extraordinary sequence specificity”.)
